Data published in the antibiotic and cytotoxicity screens of Wong et al. (2023).
The list shows a part of the results.

Columns and labels:
[1] = test system: HSkMC (human skeletal muscle cells); experiment: cytotoxicity call (relative viability < 0.9); details: 10 µM
[2] = test system: HepG2; experiment: cytotoxicity call (relative viability < 0.9); details: 10 µM
[3] = test system: S. aureus RN4220; experiment: growth inhibition call (relative growth <= 0.2); details: 50 µM

SMILES	cytotoxicity call [1]	cytotoxicity call [2]	growth inhibition call [3]
COC(=O)c1c(CC[C@@H](COC(=O)NCCCCCC(=O)NO)NC(=O)N[C@@H](Cc2ccccc2)Cn2cc(-c3ccccc3)nn2)oc(C(=O)N2CCOCC2)c1C(=O)OC	inactive	inactive	inactive
CO[C@H]1CN(C)C(=O)c2ccc(NC(=O)CC(F)(F)F)cc2OC[C@H](C)N(C(=O)C2CCOCC2)C[C@@H]1C	inactive	inactive	inactive
C[C@@H]1CCCCO[C@@H](CN(C)C(=O)Nc2cccc3ccccc23)[C@H](C)CN([C@@H](C)CO)C(=O)c2cc(NC(=O)Nc3ccc4c(c3)OCO4)ccc2O1	inactive	inactive	inactive
Cc1ccc(-c2ccc3c(c2)O[C@@H](CN(C)Cc2cncnc2)[C@H](C)CN([C@H](C)CO)S3(=O)=O)cc1	inactive	inactive	inactive
C[C@H](CO)N1C[C@H](C)[C@@H](CN(C)S(=O)(=O)c2cccs2)Oc2ccc(NC(=O)C3CC3)cc2CC1=O	inactive	inactive	inactive
COc1ccc(S(=O)(=O)Nc2ccc3c(c2)C(=O)N([C@H](C)CO)C[C@H](C)[C@H](CN(C)Cc2ccc(C(=O)Nc4ccccc4N)cc2)OCCCC[C@@H](C)O3)cc1	inactive	inactive	inactive
COc1ccc(-c2ccc3c(c2)O[C@H](CN(C)CC2CCOCC2)[C@H](C)CN([C@@H](C)CO)S3(=O)=O)cc1	inactive	inactive	inactive
CCCCC[C@H]1C[C@H]1C[C@H]1C[C@H]1CCCCCCCC(=O)O	inactive	inactive	inactive
C[C@@H]1CN([C@@H](C)CO)C(=O)Cc2cc(N(C)C)ccc2O[C@H]1CN(C)S(=O)(=O)c1cn(C)cn1	inactive	inactive	inactive
CNC(=O)CN1CCOC[C@@]2(C1)CN(Cc1ccn(C)n1)CCO2	inactive	inactive	inactive
O=C1N[C@H](Cc2c[nH]c3ccccc23)COC(=O)[C@@H](Cc2ccc(F)cc2)CC=CC[C@H]1CC(=O)N(CCO)Cc1ccccc1	inactive	inactive	inactive
O=C(O)c1cc(=O)[nH]c(=O)[nH]1	inactive	inactive	inactive
Cc1ccc(S(=O)(=O)N(C)C[C@H]2OCCCC[C@H](C)Oc3ccc(NS(=O)(=O)c4ccc(Cl)cc4)cc3C(=O)N([C@@H](C)CO)C[C@H]2C)cc1	inactive	inactive	inactive
C[C@H]1CN([C@@H](C)CO)C(=O)c2cc(NC(=O)Cn3cnnn3)ccc2O[C@@H]1CN(C)Cc1ccc(-c2ccccc2)cc1	inactive	inactive	inactive
O=C1[C@H]2[C@H](O)CS[C@H]2C(=O)N1c1ccccc1	inactive	inactive	inactive
Cc1ccc(S(=O)(=O)Nc2ccc3c(c2)C(=O)N([C@@H](C)CO)C[C@@H](C)[C@H](CN(C)C(=O)Nc2c(C)noc2C)OCCCC[C@@H](C)O3)cc1	inactive	inactive	inactive
CC(C)NC(=O)N(C)C[C@H]1Oc2cc(C#Cc3ccc(F)cc3)ccc2S(=O)(=O)N([C@@H](C)CO)C[C@H]1C	inactive	inactive	inactive
C[C@@H]1CN([C@H](C)CO)C(=O)c2c(c3ccccc3n2C)-c2ccccc2CO[C@@H]1CN(C)Cc1ccc2c(c1)OCO2	inactive	inactive	inactive
CCOc1ccc(/C=C/C(=O)Sc2ccc(Cl)cc2)cc1	inactive	inactive	inactive

SMILES	cytotoxicity call [1]	cytotoxicity call [2]	growth inhibition call [3]
Cc1noc(C)c1NC(=O)Nc1ccc2c(c1)C(=O)N([C@H](C)CO)C[C@H](C)[C@@H](CN(C)S(=O)(=O)c1ccccc1)OCCCC[C@@H](C)O2	inactive	inactive	inactive
CC(C)N1C(=O)c2cccc(NC(=O)c3ccncc3)c2O[C@H](CN(C)Cc2ccc(Cl)cc2)[C@H]1C	inactive	inactive	inactive
C[C@H](NC(=O)N(C)C[C@@H]1OCc2ccccc2-c2c(n(C)c3ccccc23)C(=O)N([C@@H](C)CO)C[C@H]1C)c1ccccc1	inactive	inactive	inactive
CCC1OC(=O)C(C)C(OC2CC(C)(OC)C(O)C(C)O2)C(C)C(OC2OC(C)CC(N(C)C)C2O)C(C)(O)CC(C)C(=O)C(C)C(O)C1(C)O.CCCCCCCCCCCCCCCCCC(=O)O (stereo not drawn)	inactive	inactive	inactive
C[C@H]1CN([C@@H](C)CO)C(=O)c2c(c3ccccc3n2C)-c2ccccc2CO[C@@H]1CN(C)C(=O)NC1CCCCC1	inactive	inactive	inactive
COc1cc(CN)cc(OC)c1OC	inactive	inactive	inactive
COc1ccc(NC(=O)N(C)C[C@@H]2Oc3ccc(NC(=O)CCCCCC(=O)Nc4ccccc4N)cc3CC(=O)N([C@H](C)CO)C[C@@H]2C)cc1	inactive	inactive	inactive
Cc1ccc(-c2ccc(N)cc2)cc1	inactive	inactive	inactive
C[C@H]1CN([C@@H](C)CO)C(=O)c2cccc(NC(=O)C3CCOCC3)c2O[C@H]1CN(C)C(=O)NC1CCCCC1	inactive	inactive	inactive
Cc1ccc(S(=O)(=O)Nc2ccc3c(c2)C(=O)N([C@@H](C)CO)C[C@@H](C)[C@@H](CN(C)Cc2ccc(C(F)(F)F)cc2)OCCCC[C@@H](C)O3)cc1	active	active	inactive
C[C@@H]1CN([C@@H](C)CO)S(=O)(=O)c2ccc(-c3ccncc3)cc2O[C@H]1CN(C)S(=O)(=O)c1ccccc1F	inactive	inactive	inactive
C[C@@H]1CCCCO[C@H](CN(C)CC2CC2)[C@H](C)CN([C@@H](C)CO)C(=O)c2cc(NC(=O)c3ccccc3)ccc2O1	inactive	inactive	inactive
C[C@@H]1CN([C@@H](C)CO)C(=O)c2cc(NC(=O)Nc3ccc(F)cc3)ccc2O[C@H]1CN(C)C(=O)Nc1cccc2ccccc12	inactive	inactive	inactive
CCC(=O)c1ccc(C)s1	inactive	inactive	inactive
O=C(C[C@H]1C=C[C@H](NC(=O)c2cccc(F)c2)[C@@H](CO)O1)NCCN1CCCC1	inactive	inactive	inactive
C[C@@H]1CN([C@H](C)CO)C(=O)c2cccc(NC(=O)Nc3ccc(C(F)(F)F)cc3)c2O[C@@H]1CN(C)Cc1ccc2c(c1)OCO2	inactive	inactive	inactive
C[C@H]1CN([C@@H](C)CO)C(=O)Cc2cc(NS(=O)(=O)c3cccs3)ccc2O[C@H]1CN(C)CC1CC1	inactive	inactive	inactive
C[C@H]1CN([C@@H](C)CO)C(=O)Cc2cc(NS(C)(=O)=O)ccc2O[C@H]1CN(C)Cc1ccc(C(=O)O)cc1	inactive	inactive	inactive
COc1ccc(NC(=O)N(C)C[C@@H]2Oc3ccc(NC(=O)Nc4ccc(C(F)(F)F)cc4)cc3CC(=O)N([C@@H](C)CO)C[C@H]2C)cc1	inactive	inactive	inactive

SMILES	cytotoxicity call [1]	cytotoxicity call [2]	growth inhibition call [3]
C[C@H](CO)N1C[C@H](C)[C@@H](CN(C)S(C)(=O)=O)Oc2ccc(NC(=O)NC3CCCCC3)cc2C1=O	inactive	inactive	inactive
C[C@@H]1CN([C@@H](C)CO)C(=O)c2cc(NS(=O)(=O)c3cn(C)cn3)ccc2O[C@@H](C)CCCCO[C@@H]1CN(C)S(=O)(=O)c1cn(C)cn1	inactive	inactive	inactive
COCCC(=O)N1C[C@H]2CN(c3cnn(C)c3)C(=O)[C@@H]2C1	inactive	inactive	inactive
C[C@@H]1CN([C@@H](C)CO)C(=O)c2cccc(NS(C)(=O)=O)c2O[C@@H]1CN(C)S(=O)(=O)c1cccs1	inactive	inactive	inactive
C[C@H](N)c1ccc(Cl)cc1	inactive	inactive	inactive
C[C@@H]1CN([C@H](C)CO)C(=O)c2cc(NC(=O)CCCN(C)C)ccc2O[C@H]1CN(C)Cc1ccccc1	inactive	inactive	inactive
COC[C@]1(O)CCN(C(=O)CCN(C)S(C)(=O)=O)CC1(C)C	inactive	inactive	inactive
C[C@H]1CCCCO[C@H](CN(C)C(=O)NC2CCCCC2)[C@@H](C)CN([C@@H](C)CO)C(=O)c2cc(NC(=O)C3CCCCC3)ccc2O1	inactive	inactive	inactive
COc1cccc(-c2cn(CC[C@H]3CC[C@@H](NC(=O)CN(C)C)[C@H](CO)O3)nn2)c1	inactive	inactive	inactive
C[C@@H]1CCCCO[C@@H](CN(C)S(=O)(=O)c2cn(C)cn2)[C@@H](C)CN([C@@H](C)CO)C(=O)c2cc(NS(=O)(=O)c3cn(C)cn3)ccc2O1	inactive	inactive	inactive
O=C(C[C@H]1CC[C@H]2[C@@H](COC[C@H](O)CN2C(=O)c2ccccc2)O1)NCCCN1CCOCC1	inactive	inactive	inactive
Cc1noc(C)c1S(=O)(=O)Nc1ccc2c(c1)C(=O)N([C@H](C)CO)C[C@H](C)[C@@H](CN(C)S(C)(=O)=O)OCCCC[C@@H](C)O2	inactive	inactive	inactive
C[C@H]1CCCCO[C@@H](CN(C)CC2CCCCC2)[C@@H](C)CN([C@@H](C)CO)C(=O)c2cc(NS(=O)(=O)c3ccccc3)ccc2O1	inactive	inactive	inactive
OCCN1CCOCC1	inactive	inactive	inactive
Cc1noc(C)c1NC(=O)Nc1cccc2c1O[C@H](CN(C)Cc1ccc(-c3ccccc3)cc1)[C@@H](C)CN([C@@H](C)CO)C2=O	inactive	inactive	inactive
C[C@@H]1CN([C@H](C)CO)C(=O)c2cc(NC(=O)Cn3cnnn3)ccc2O[C@@H]1CN(C)S(=O)(=O)c1ccccc1	inactive	inactive	inactive
COc1ccc(-c2coc3cc(OC)cc(OC)c3c2=O)cc1	inactive	inactive	inactive
C[C@H]1CCCCO[C@@H](CN(C)Cc2ccc3c(c2)OCO3)[C@@H](C)CN([C@@H](C)CO)C(=O)c2cc(NC(=O)C3CCCCC3)ccc2O1	inactive	inactive	inactive
